# Reference: PubChem BioAssay (NCATS)
# Inconclusive means that the source gave no clear call. Such entries were picked first, then a sample of the others. Potencies beside an inconclusive call are fits to weak or partial responses and may not hold up. Active and inactive are the calls of the source. The call rests on the fitted dose curve; in most records, active means well fitted curve in the direction sought with a large enough effect; inconclusive means small, poorly fitted or top-dose-only effect, or another doubt; inactive means no such curve, though single readings can be large; an effect the other way counts as inactive or inconclusive.
# Columns and labels:
# OV90 = assay: Primary qHTS to identify gynecologic anti-cancer compounds using libraries of approved drugs and bioactive compounds (AID 1345084); conditions: Gynecologic cancer cell panel viability, ATPlite luminescence, 48 h; series mostly up to 57.5 µM; further: nearly all actives have a fitted effect of over 55% in size
# In short: (§1)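 48 h compound exposure at 37 C, 5% CO2; five-point qHTS. ATPlite luminescence readout of cell ATP.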
# PA-1 = assay: as above; conditions: Gynecologic cancer cell panel viability, ATPlite luminescence, 48 h; series mostly up to 57.5 µM
# In short: as §1
# SKOV3 = assay: as above; conditions: Gynecologic cancer cell panel viability, ATPlite luminescence, 48 h; series mostly up to 57.5 µM
# In short: as §1
# Tov-21-G = assay: as above; conditions: Gynecologic cancer cell panel viability, ATPlite luminescence, 48 h; series mostly up to 57.5 µM
# In short: as §1
# Tov112D = assay: as above; conditions: Gynecologic cancer cell panel viability, ATPlite luminescence, 48 h; series mostly up to 57.5 µM
# In short: as §1
# [1] = Drug repurposing screens with cells derived from glioblastoma tumor samples (AID 1345199); conditions: GBM patient neurospheres viability, ATP luminescence, 48 h; Potency: tumour line A unless noted; series mostly up to 46 µM; further: nearly all actives have a fitted effect of over 40% in size
# In short: (§2)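 Four patient lines of CD133+ GBM neurospheres were screened at several concentrations; hits were retested in those lines plus three slower-growing GBM lines, using 48-hour treatment and ATP-based viability.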
# JEG-3 = assay: Primary qHTS to identify gynecologic anti-cancer compounds using libraries of approved drugs and bioactive compounds (AID 1345084); conditions: Gynecologic cancer cell panel viability, ATPlite luminescence, 48 h; series mostly up to 57.5 µM; further: nearly all actives have a fitted effect of over 55% in size
# In short: as §1
# astro = assay: Drug repurposing screens with cells derived from glioblastoma tumor samples (AID 1345199); conditions: viability, ATP luminescence, 48 h; series mostly up to 45.9 µM; further: nearly all actives have a fitted effect of over 40% in size
# In short: as §2
# [2] = qHTS assay to identify inhibitors of the type 1 interferon - major histocompatibility complex class I in skeletal muscle: Counter screen cell viability and HiBit confirmation (AID 1347412); conditions: iHSKM muscle cells + IFN-b, HiBiT or CellTiter-Glo, 24 h; HiBiT; further: nearly all actives have a fitted effect of over 60% in size
# In short: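 Myoblasts (C25cl48, HLA-B HiBiT) seeded in medium without dexamethasone, IFN-b 4 ng/ml added except unstimulated columns; 1 hr later compounds pinned (12-pt 1:3, top 46 uM final). Incubated 24 hrs, lysed 10 min, luminescence measured.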
# Potency means the concentration at half of the fitted maximal effect; tags describe the fitted curve by direction and shape.
smiles,measurement,setting,value
NC(=O)c1cnc(-c2ccc(C3(N)CCC3)cc2)c(-c2ccccc2)c1,Potency,OV90,"inconclusive: 8.91 µM [cytotoxic, full curve]"
same,Potency,PA-1,"inconclusive: 39.8 µM [cytotoxic, single point]"
same,Potency,SKOV3,active: 28.2 µM
same,Potency,Tov-21-G,"inconclusive: 35.5 µM [cytotoxic, single point]"
same,Potency,Tov112D,inactive
CC1COc2c(N3CCN(C)CC3)c(F)cc3c(=O)c(C(=O)O)cn1c23 (stereo not given),Potency,OV90,inactive
COC(c1ccccc1)(c1ccccc1)[C@H](Oc1nc(C)cc(C)n1)C(=O)O,Potency,OV90,inactive
same,Potency,Tov-21-G,"inconclusive: 39.8 µM [cytotoxic, single point]"
same,Potency,Tov112D,"inconclusive: 25.1 µM [cytotoxic, single point]"
same,Potency,[1],inactive
C[C@@]1(c2cc(-c3cncnc3)c(F)cc2F)CCSC(N)=N1,Potency,OV90,inactive
same,Potency,SKOV3,inactive
CN[C@@H](C)[C@H]1[C@H](O)C[C@@]2(C)[C@@H]3CC[C@H]4C(C)(C)[C@@H](NC)CC[C@@]45C[C@@]35CC[C@]12C,Potency,OV90,"inconclusive: 0.316 µM [cytotoxic, full curve, poor fit]"
CC(C)Nc1cc(C(F)(F)F)cc2nc(NC(=O)c3cccnc3)nn12,Potency,OV90,inactive
same,Potency,PA-1,inconclusive: 100 µM
same,Potency,Tov112D,inconclusive: 794 µM
O=C(CO)N1CCC(c2[nH]nc(-c3ccc(Cl)cc3)c2-c2ccncn2)CC1,Potency,OV90,inactive
Clc1ccc(C(Cn2ccnc2)OCc2ccsc2Cl)c(Cl)c1 (stereo not given),Potency,JEG-3,inactive
same,Potency,PA-1,inactive
same,Potency,astro,"inconclusive: 20 µM [inhibitor, single point]"
Cc1ncc([N+](=O)[O-])n1CC(C)O (stereo not given),Potency,JEG-3,"inconclusive: 39.8 µM [rising, single point]"
same,Potency,SKOV3,inactive
same,Potency,[1],inactive
CCC1=C(C)CN(C(=O)NCCc2ccc(S(=O)(=O)NC(=O)NC3CCC(C)CC3)cc2)C1=O (stereo not given),Potency,OV90,inactive
same,Potency,[1],"inconclusive: 17.8 µM [inhibitor, partial curve]"
O=c1cc(O)c(Cl)c[nH]1,Potency,PA-1,"inconclusive: 35.5 µM [rising, single point]"
CN1CCN(CCCN2c3ccccc3Sc3ccc(Cl)cc32)CC1,Potency,OV90,"inconclusive: 14.1 µM [cytotoxic, partial curve, poor fit]"
same,Potency,PA-1,"inconclusive: 1.58 µM [rising, partial curve, poor fit]"
COc1nccc(-c2c(-c3ccc(F)cc3)ncn2C2CCNCC2)n1,Potency,OV90,"inconclusive: 3.16 µM [cytotoxic, full curve]"
same,Potency,PA-1,"inconclusive: 20 µM [cytotoxic, single point]"
same,Potency,Tov-21-G,"inconclusive: 22.4 µM [cytotoxic, partial curve, poor fit]"
O=C(O)CCn1c2c(c3ccccc31)C[C@H](NS(=O)(=O)c1ccc(F)cc1)CC2,Potency,OV90,inactive
same,Potency,[1],inactive
OCCN(CCO)c1nc(N2CCCCC2)c2nc(N(CCO)CCO)nc(N3CCCCC3)c2n1,Potency,OV90,"inconclusive: 39.8 µM [cytotoxic, single point]"
NC(=O)c1ccc2nc(-c3ccc(Oc4ccc(Cl)cc4)cc3)[nH]c2c1,Potency,OV90,"inconclusive: 14.1 µM [cytotoxic, partial curve]"
same,Potency,PA-1,active: 15.8 µM
same,Potency,SKOV3,"inconclusive: 6.31 µM [cytotoxic, single point]"
same,Potency,Tov-21-G,"inconclusive: 25.1 µM [cytotoxic, single point]"
CC1COC2(CCN(c3nc(=O)c4cc(C(F)(F)F)cc([N+](=O)[O-])c4s3)CC2)O1 (stereo not given),Potency,OV90,"inconclusive: 4.47 µM [cytotoxic, single point]"
same,Potency,PA-1,inactive
same,Potency,Tov-21-G,"inconclusive: 28.2 µM [cytotoxic, single point]"
COc1nccc(-c2c(-c3ccc(F)cc3)ncn2C2CCC(O)CC2)n1 (stereo not given),Potency,OV90,"inconclusive: 28.2 µM [cytotoxic, single point]"
same,Potency,SKOV3,inactive
CNS(=O)(=O)Cc1ccc2[nH]cc(CCN(C)C)c2c1,Potency,JEG-3,inactive
same,Potency,SKOV3,"inconclusive: 25.1 µM [rising, single point]"
same,Potency,[1],inactive
CCCNCC(O)COc1ccccc1C(=O)CCc1ccccc1 (stereo not given),Potency,OV90,"inconclusive: 7.94 µM [cytotoxic, full curve, poor fit]"
same,Potency,SKOV3,"inconclusive: 4.47 µM [cytotoxic, single point]"
Cn1cc(-c2ccc3nnc(C(F)(F)c4ccc5ncccc5c4)n3n2)cn1,Potency,JEG-3,inactive
same,Potency,SKOV3,"inconclusive: 3.55 µM [rising, single point]"
CC1(C)CCC(CN2CCN(c3ccc(C(=O)NS(=O)(=O)c4ccc(NCC5CCOCC5)c([N+](=O)[O-])c4)c(Oc4cnc5[nH]ccc5c4)c3)CC2)=C(c2ccc(Cl)cc2)C1,Potency,JEG-3,"inconclusive: 11.2 µM [rising, single point]"
same,Potency,SKOV3,inactive
Nc1nc2c(ncn2COCCO)c(=O)[nH]1,Potency,JEG-3,inactive
same,Potency,Tov-21-G,inactive
same,Potency,[1],"inconclusive: 3.55 µM [inhibitor, partial curve, poor fit] [tumour line D]"
COc1ccc2c(Oc3ccc(NC(=O)c4c(C)n(CC(C)(C)O)n(-c5ccccc5)c4=O)nc3)ccnc2c1,Potency,OV90,inactive
same,Potency,SKOV3,"inconclusive: 39.8 µM [cytotoxic, single point]"
same,Potency,Tov-21-G,"inconclusive: 31.6 µM [cytotoxic, single point]"
O=C(O)c1cn(-c2ccc(F)cc2)c2cc(N3CCNCC3)c(F)cc2c1=O,Potency,OV90,inactive
same,Potency,[1],"inconclusive: 1.26 µM [inhibitor, full curve]"
NC(=O)OCC(COC(N)=O)c1ccccc1,Potency,OV90,inactive
CC(COc1ccccc1)N(CCCl)Cc1ccccc1 (stereo not given),Potency,PA-1,inactive
same,Potency,[1],active: 20 µM
CS(=O)(=O)c1ccc(C2=C(c3ccccc3)C(=O)OC2)cc1,Potency,SKOV3,"inconclusive: 1 µM [rising, full curve, poor fit]"
COC[C@@H](c1ccc(C(F)(F)F)cc1)N1CCN(C2(C)CCN(C(=O)c3c(C)ncnc3C)CC2)C[C@H]1C,Potency,SKOV3,"inconclusive: 8.91 µM [rising, single point]"
CCCCCCCCCC(=O)N[C@@H](Cc1c[nH]c2ccccc12)C(=O)N[C@H](CC(N)=O)C(=O)N[C@@H](CC(=O)O)C(=O)N[C@@H]1C(=O)NCC(=O)N[C@@H](CCCN)C(=O)N[C@@H](CC(=O)O)C(=O)N[C@H](C)C(=O)N[C@@H](CC(=O)O)C(=O)NCC(=O)N[C@H](CO)C(=O)N[C@@H]([C@@H](C)CC(=O)O)C(=O)N[C@@H](CC(=O)c2ccccc2N)C(=O)O[C@@H]1C,Potency,SKOV3,inactive
COc1cc2ncnc(-n3nc(-c4ccccn4)nc3N)c2cc1OC,Potency,SKOV3,"inconclusive: 2.82 µM [cytotoxic, single point]"
COc1ccc2c(Oc3ccc(NC(=O)c4c(C)n(CC(C)(C)O)n(-c5ccccc5)c4=O)cc3F)ccnc2c1,Potency,SKOV3,"inconclusive: 39.8 µM [cytotoxic, single point]"
NC12CC3CC(CC(C3)C1)C2,Potency,PA-1,inactive
same,Potency,[1],"inconclusive: 22.4 µM [inhibitor, single point] [tumour line D]"
Cc1nc(C(=O)NCC(=O)O)c(O)c2ccc(Oc3ccccc3)cc12,Potency,SKOV3,"inconclusive: 35.5 µM [rising, single point]"
same,Potency,Tov-21-G,inactive
Cc1cn([C@H]2C=C[C@@H](CO)O2)c(=O)[nH]c1=O,Potency,SKOV3,inactive
CCn1cc(C(=O)O)c(=O)c2ccc(C)nc21,Potency,PA-1,"inconclusive: 39.8 µM [rising, single point]"
same,Potency,[1],"inconclusive: 39.8 µM [inhibitor, partial curve, poor fit]"
same,Potency,astro,inactive
COCCOC(=O)C1=C(C)NC2=C(C(=O)CC(c3ccccc3OC)C2)C1c1cccc(O)c1 (stereo not given),Potency,PA-1,inactive
same,Potency,SKOV3,"inconclusive: 31.6 µM [cytotoxic, single point]"
CC[C@H](NC(C)C)[C@H](O)c1ccc(O)c2[nH]c(=O)ccc12,Potency,SKOV3,inactive
COc1ccc2cc(-c3nc(-c4ccc(S(C)=O)cc4)[nH]c3-c3ccncc3)ccc2c1 (stereo not given),Potency,SKOV3,"inconclusive: 39.8 µM [cytotoxic, single point]"
Cc1ccc2c(c1)C(=O)[C@]1(O)CCN(c3ccccc3)C1=N2,Potency,PA-1,inactive
same,Potency,SKOV3,inactive
same,Potency,Tov-21-G,"inconclusive: 15.8 µM [cytotoxic, partial curve]"
CC(CCc1ccc(O)cc1)NCCc1ccc(O)c(O)c1 (stereo not given),Potency,PA-1,"inconclusive: 0.562 µM [rising, partial curve, poor fit]"
same,Potency,SKOV3,"inconclusive: 8.91 µM [rising, single point]"
same,Potency,astro,"inconclusive: 25.1 µM [inhibitor, single point]"
COC(=O)N1CCN(Cc2cccc(NC(=O)Nc3ccc(C)nc3)c2F)CC1,Potency,SKOV3,"inconclusive: 39.8 µM [cytotoxic, single point]"
CCCn1c(=O)c2[nH]c(-c3cnn(Cc4cccc(C(F)(F)F)c4)c3)nc2n(CC)c1=O,Potency,SKOV3,inactive
CCNC(=O)Nc1ccc2ncc(Nc3ccc(C)cc3)nc2n1,Potency,SKOV3,inactive
Cc1ccccc1-n1c(Cn2nc(-c3cccc(O)c3)c3c(N)ncnc32)nc2cccc(C)c2c1=O,Potency,PA-1,inactive
same,Potency,SKOV3,inactive
same,Potency,[2],"inconclusive: 31.3 µM [inhibitor, partial curve]"
Cc1cn2c(-c3cn[nH]c3)cnc2c(Nc2ccc(C(=O)N3CCNCC3)cc2F)n1,Potency,PA-1,"inconclusive: 20 µM [cytotoxic, single point]"
same,Potency,SKOV3,"inconclusive: 10 µM [cytotoxic, partial curve, poor fit]"
same,Potency,Tov-21-G,"inconclusive: 15.8 µM [cytotoxic, partial curve, poor fit]"
same,Potency,Tov112D,"inconclusive: 28.2 µM [cytotoxic, single point]"
CC1CCN(c2cc(N3CCN(C)CC3)ccc2NC(=O)c2cc(C#N)c[nH]2)CC1,Potency,PA-1,inactive
same,Potency,SKOV3,inactive
CN1CCC(=C2c3ccccc3CC(=O)c3sccc32)CC1,Potency,PA-1,inactive
same,Potency,astro,"inconclusive: 35.5 µM [inhibitor, partial curve, poor fit]"
